Laboratory results as given in the supplement of paper PMC4723716.
± gives the uncertainty stated by the source. Whole data set: some 9,900 compounds, median “viability index relative to DMSO control” near 1, cut for the lowest 2% near 0.85. The list shows a part of the results.

Test system: Plasmodium falciparum NF54 stage V gametocytes
Experiment: viability index relative to DMSO control (fraction); higher = less gametocyte killing
Conditions: 2.5 µM, incubation time: 72 h
In short: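 P. falciparum NF54 stage V gametocytes (serum-free medium, 0.75% gametocytemia, 1.25% hematocrit) were exposed to compound at 2.5 µM for 72 hr at 37°C under low oxygen, then stained with MitoTracker Red CMXRos and saponin for one to two hours. Red particles of 20–70 µm2 in one field per well were counted, and the viability index is that count scaled to the plate mean of solvent-only wells.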

[1] = library set: Broad Institute DOS

SMILES | viability index [1] | viability index (library set: Broad Institute Blood Stage)
O=S(=O)(c1ccccc1)N1CCCCN2[C@H](C1)[C@@H](c1ccc(C#CC3CCCC3)cc1)[C@@H]2CO | 0.907 ± 0.07 | –
C[C@@H]1CN([C@H](C)CO)S(=O)(=O)c2ccc(-c3cncnc3)cc2O[C@H]1CN(C)C(=O)NC1CCCC1 | 1.01 ± 0.038 | –
COCC(=O)N1CC(=O)N2[C@H](C1)[C@@H](c1ccc(C#CC3CC3)cc1)[C@@H]2CO | 0.96 ± 0.041 | –
CS(=O)(=O)N1[C@H](C#N)[C@H](c2ccccc2-c2ccccc2F)[C@@H]1CO | 1.07 ± 0.11 | –
CO[C@@H]1CC[C@H]2CCOc3c(C#N)cccc3C(=O)N(C)C[C@H](c3ccccc3)CC(=O)N(C)C[C@H]1O2 | 1.13 ± 0.066 | –
COCC(=O)Nc1ccc2c(c1)C(=O)N(C)[C@@H]1CC[C@H](CC(=O)NCCCN(C)C)O[C@H]1CO2 | 0.948 ± 0.14 | –
Cc1cc(C(=O)Nc2ccc3c(c2)C(=O)N(C)[C@@H]2CC[C@@H](CC(=O)O)O[C@@H]2CO3)no1 | 1.09 ± 0.069 | –
CC(C)c1cccc(NC(=O)C[C@H]2CC[C@H]3[C@@H](COc4ccc(NC(=O)c5cnccn5)cc4C(=O)N3C)O2)c1 | 1.07 ± 0.049 | –
C[C@@H](NC(=O)C[C@H]1CC[C@@H]2[C@H](COC[C@@H](O)CN2C(=O)Nc2cccc(Cl)c2)O1)c1ccccc1 | 1.19 ± 0.041 | –
COc1ccc2c3c([nH]c2c1)[C@@H](CO)N(Cc1ccccc1F)C[C@]31CN(CC2CC2)C1 | 1.04 ± 0.058 | –
O=C(C[C@H]1C[C@@H]2c3cc(NC(=O)NC4CCCC4)ccc3O[C@@H]2[C@@H](CO)O1)NCc1ccccc1F | 0.974 ± 0.034 | –
CC(=O)N1[C@H](CO)[C@H](c2ccc(C3=CCCC3)cc2)C12CN(C(=O)NC(C)C)C2 | 1.1 ± 0.012 | –
COc1ccc2c3c([C@@H](CO)N(Cc4cccnc4)C[C@]33CN(C3)C(=O)c3cccnc3)n(C)c2c1 | 1.01 ± 0.017 | –
CO[C@H]1CN(C)C(=O)c2ccc(NC(=O)c3ccccc3F)cc2OC[C@H](C)N(C)C[C@@H]1C | 1.12 ± 0.085 | –
C/C=C/c1ccc([C@H]2[C@@H](CO)N(C(C)=O)[C@@H]2CNC(=O)c2ccccc2)cc1 | 1.075 ± 0.0042 | –
CCCC(=O)N1C[C@@]2(C1)CN([C@H](CO)c1[nH]c3cc(OC)ccc3c21)C(=O)c1ccc(F)cc1 | 0.994 ± 0.026 | –
Cc1cccc(S(=O)(=O)N2[C@@H]3Cn4c(cccc4=O)[C@H]2[C@@H](C(=O)N(C)C)[C@@H]3CO)c1 | 1.07 ± 0.084 | –
C[C@@H]1CN([C@H](C)CO)C(=O)c2cccc(NC(=O)c3ccc(-c4nccs4)cc3)c2O[C@@H]1CN(C)C(=O)Nc1ccc(C(F)(F)F)cc1 | 0.939 ± 0.051 | –
CNC[C@H]1Oc2ccc(NC(=O)CCC(F)(F)F)cc2C(=O)N([C@@H](C)CO)C[C@@H]1C | 0.982 ± 0.038 | –
CCS(=O)(=O)Nc1ccc2c(c1)C(=O)N(C)[C@@H]1CC[C@@H](CC(=O)N3CCN(C)CC3)O[C@H]1CO2 | 1.07 ± 0.061 | –
COc1ccc2c3c([C@@H](CO)N(C[C@]33CCN(CC3)C(=O)Nc3cccc(F)c3)C(=O)C3CC3)n(C)c2c1 | – | 0.807 ± 0.036
O=S(=O)(c1ccccc1)N1CC2(C1)[C@H](c1ccccc1)[C@H](CO)N2CCC(F)(F)F | 1.075 ± 0.01 | –

SMILES | viability index [1] | viability index (library set: Broad Institute Blood Stage)
Cc1noc(C)c1NC(=O)Nc1ccc2c(c1)C(=O)N([C@@H](C)CO)C[C@@H](C)[C@@H](CN(C)S(=O)(=O)c1ccc(F)cc1)O2 | 1.06 ± 0.067 | –
OC[C@H]1Nc2ccc(C#Cc3ccc(F)cc3)cc2[C@H]2[C@@H]1CCN2Cc1ccc2c(c1)OCO2 | 1 ± 0.028 | –
O=C1CCCc2cnnn2COC[C@@H](c2ccccc2)N1 | 1.03 ± 0.022 | –
COc1ccc(NC(=O)N2C[C@@H](O)COC[C@H]3O[C@H](CC(=O)N4CCCCC4)CC[C@@H]32)cc1 | 1.08 ± 0.045 | –
O=C(N[C@H]1CC[C@H](CCn2cc(-c3ccccc3F)nn2)O[C@@H]1CO)c1ccc2c(c1)OCO2 | 1.07 ± 0.041 | –
CC(C)NC(=O)N(C)C[C@@H]1Oc2ccc(NC(=O)c3ccncc3)cc2C(=O)N([C@H](C)CO)C[C@H]1C | 0.954 ± 0.041 | –
COc1cccc(C(=O)Nc2ccc3c(c2)C(=O)N(C)[C@@H]2CC[C@@H](CC(=O)N[C@@H](C)c4ccccc4)O[C@@H]2CO3)c1 | 1.11 ± 0.2 | –
C[C@@H]1C/C=C/C[C@@H](c2ccccc2)NC(=O)[C@H](C)N(C)C(=O)c2ccccc2O1.C[C@@H]1C/C=C\C[C@@H](c2ccccc2)NC(=O)[C@H](C)N(C)C(=O)c2ccccc2O1 | 1 ± 0.069 | –
C[C@@H]1CN([C@@H](C)CO)S(=O)(=O)c2ccc(C#CCC3CCCC3)cc2O[C@H]1CN(C)C(=O)c1cnccn1 | 1.01 ± 0.031 | –
CN1c2ccc(-c3ccc(C#N)cc3)cc2[C@H]2[C@H](CCN2S(=O)(=O)c2ccc(F)cc2)[C@H]1CO | 1.1191 ± 0.00049 | –
COc1ccc(NC(=O)N2C[C@H](O)COC[C@H]3O[C@H](CC(=O)N4CCCCC4)CC[C@@H]32)cc1 | 1.04 ± 0.052 | –
CN1C(=O)c2cc(NC(=O)C3CCOCC3)ccc2OC[C@@H]2O[C@H](CC(=O)NCc3ccccc3F)CC[C@H]21 | 1.04 ± 0.032 | –
COc1ccc2c3c([C@@H](CO)N(Cc4ccccc4OC)C[C@]33CCN(CC4CC4)CC3)n(C)c2c1 | 0.947 ± 0.025 | –
O=S(=O)(c1ccccc1)N1[C@@H](CO)[C@@H]2c3ccccc3NC[C@@H]21 | 1.0551 ± 0.00095 | –
O=C(Nc1ccc(C(F)(F)F)cc1)N[C@@H]1C=C[C@@H](CC(=O)N2CCCCC2)O[C@@H]1CO | 1.12 ± 0.13 | –
COc1ccc(S(=O)(=O)N(C)C[C@@H]2Oc3c(cccc3N(C)C)C(=O)N([C@H](C)CO)C[C@H]2C)cc1 | 1.07 ± 0.058 | –
CO[C@@H]1CN(C)C(=O)c2cc(NC(=O)c3cc(C)on3)ccc2OC[C@@H](C)N(C(=O)C2CCC2)C[C@H]1C | 1.1 ± 0.017 | –
COc1cccc(C(=O)Nc2ccc3c(c2)C(=O)N(C)[C@H]2CC[C@@H](CC(=O)NCc4ccc(F)cc4)O[C@@H]2CO3)c1 | 1.1 ± 0.077 | –
N#C[C@H]1[C@@H](c2ccccc2C2=CCCC2)[C@@H](CO)N1C(=O)c1cccc(F)c1 | 1.08 ± 0.1 | –
CCC(=O)N1[C@H](C(=O)NCCCN(C)C)[C@@H](CO)[C@@H]2Cn3c(ccc(-c4ccccc4OC)c3=O)[C@@H]21 | 1.06 ± 0.014 | –
CC(C)(C)[S@](=O)N1Cc2cc(C(=O)N3CCOCC3)nc(-c3cccc(-c4ccc(C#N)cc4)c3)c2[C@@H]1CCO | 1.02 ± 0.026 | –
Cc1cc(C(=O)Nc2cccc3c2O[C@@H](CN(C)C)[C@H](C)CN([C@@H](C)CO)C3=O)n(C)n1 | 1.047 ± 0.0022 | –
